Assay results taken from the supplement of paper PMC4466236.
Over roughly 33,000 sequences, “E-score (dimensionless, -0.5 to 0.5)” has its median near -0.058; the highest 2% begin near 0.35. The list shows a part of the results.

The sequences below were run on MvaT (assay: PBM 8-mer E-score (mean of HK and ME arrays) (E-score (dimensionless, -0.5 to 0.5)); higher = stronger relative binding preference; most listed sequences are background and not binding sites).
Summary of the method: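 Full-length P. aeruginosa MvaT carrying an N-terminal glutathione S-transferase tag was tested by protein binding microarray following a previously described protocol. Two universal double-stranded 60-mer arrays, ME and HK, were used, each with a constant 25-mer primer region and a variable 35-mer region covering all 8-mers. The rank-based E-score is the mean of the two arrays, parsed with a custom script. Its range runs from -0.5 to 0.5 for each 8-mer.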

Sequence | PBM 8-mer E-score
CTTGCGTC | -0.136
TAAAAGGA | 0.158
CCGACTCC | -0.222
AAAGAAGC | -0.0145
CCTCCTTC | -0.353
CCAAGCGC | -0.229
AAATCCAT | 0.102
AGCTACAG | -0.0843
ATGTGAAT | 0.121
AGTTTACA | 0.178
ACAGCGCA | -0.156
ATCCGGCG | -0.0394
ATACGGAT | 0.0891
ACTGATCT | -0.0481
GAGGACAC | -0.0434
ACCTCCAC | -0.149
CGTTAGAG | -0.0872
ATGTGGTA | 0.124
GCGAGAGA | -0.103
GCTATCCA | -0.222
GCGGCAAC | -0.145
ACATGCGA | -0.0347
AGGATAGG | -0.115
GAGTTATA | 0.369
GGCGAGGA | -0.112

Sequence | PBM 8-mer E-score
TCGTCAGA | -0.0502
GCCATACC | -0.261
CGGACTAG | -0.159
CCCTTTTA | -0.00136
CGTCTTTA | 0.0862
GATTTTGC | 0.0707
GCGACACC | -0.247
ACCCCTTC | -0.311
CATCGCCG | -0.171
CCACCGGC | -0.21
CCCTTGCC | -0.332
CCGGGAAC | -0.283
ATTCTTAA | 0.213
CAGCACTC | -0.123
ATCGGGTC | -0.147
ACGTCGCA | -0.21
ACTGGGCA | -0.266
CGGGCACG | -0.17
AACCTTCT | -0.155
GTAATATA | 0.436
CCGCTAGG | -0.25
CACCACAA | 0.0251
GTATGCTA | -0.0261
GTAAGAAC | 0.0573
CTCGTAAC | -0.11

Sequence | PBM 8-mer E-score
AATTTCAA | 0.32
ACAAACCT | 0.102
CCATCAGG | -0.358
ATATAAGG | 0.31
TATCACGA | 0.175
CGTTGCCA | -0.032
GGGCTGAA | -0.257
ATCGATTC | 0.199
ATCGGCTG | 0.028
CGTGGACC | -0.247
AGTTTTTC | 0.154
AACGCAGA | 0.00264
AGAGATAA | 0.144
CACACACG | -0.16
CAGCGAAC | -0.127
GGAGGCAA | -0.11
AGGTCGAG | -0.193
GTGTCCCA | -0.104
ATCAGGGG | -0.0941
AGAAGGGC | -0.284
GGCACATA | 0.158
GCGCAATA | 0.143
ACGGGTTC | -0.115
ACCCTAAT | -0.0259
CATAATTA | 0.421

Sequence | PBM 8-mer E-score
CTCCGAGC | -0.182
AAGATGTA | 0.0691
TAAGACAA | 0.207
GGCTCTAC | -0.167
GGAACACC | -0.11
AGAACTAA | 0.268
ATCGACGG | -0.139
GACCCTCC | -0.19
TCAACGCA | 0.047
GCAACCAA | 0.0658
CTTCCCAC | -0.159
CGTAGAGC | -0.145
CCATTCGA | -0.0955
GACGGTGA | -0.0997
AGCGGAGC | -0.214
GGGCGTTA | -0.0456
GTCCGACA | -0.115
TAGTCTGA | 0.0401
CGGACACC | -0.168
CAGGAGGG | -0.258
GTCCCATA | -0.05
ATGATTTA | 0.18
ACACCGAC | -0.114
GGCAAATA | 0.279
CATCGGGA | -0.163

Sequence | PBM 8-mer E-score
CTCTCATC | -0.243
CCCGGATA | -0.0749
CGTCCACA | -0.2
CCGCCGCA | -0.302
CGGATCAA | -0.0667
AACATTGC | 0.0199
CCTCCCCA | -0.292
AGTAACCG | 0.0201
CGTTGGAA | -0.198
CAATGAAA | 0.00551
AACTCAGC | 0.0876
CGTAGGGA | -0.205
ACGGACAG | -0.161
ACCATTCC | -0.0127
AACGTACC | -0.048
AGCAAGGG | -0.169
GAGCCGGA | -0.254
AAAGAACG | 0.0931
CTTTGTAA | 0.119
CATAGCAG | -0.049
GGTCGACA | -0.0437
AGATATAG | 0.208
AGGTCTAG | -0.194
ACGCGAGT | -0.0951
TGTCTGAA | -0.0723

Sequence | PBM 8-mer E-score
GATACCAC | -0.0597
ACGAGCTC | -0.191
CACAAGAA | -0.049
ATAGTGTA | 0.269
GGGATACC | -0.17
AAGCAAAC | 0.051
AAGCTTCT | -0.0432
AGTTTTCA | 0.058
AGGATGGG | -0.229
ATGCTTTG | -0.0104
AGGACCCT | -0.235
CGTAAAAA | 0.133
AGACACAA | -0.0303
GTGAATAA | 0.243
CCTCTACC | -0.233
ACCTTTCT | -0.0403
ATAAATGC | 0.279
CTTGTGCC | -0.0486
ATAATTAT | 0.467
ATTGTATC | 0.144
ATCAACCG | -0.104
CCCCAGGC | -0.307
ACAGAGGG | -0.132
ATTGGGAC | 0.00917
ACACTGCC | -0.148

Sequence | PBM 8-mer E-score
CTCACGGA | -0.101
CTCTCGTC | -0.167
CGCACATC | -0.00869
GAAGTGCC | -0.181
AATGGCCG | -0.0953
ATATCGTG | 0.234
AAGGAACA | -0.115
GTCATCCA | -0.138
ATTCGGCC | -0.146
GGGATTAC | -0.101
CTCAGAGA | -0.0944
TGGTTAAA | 0.187
ACTTTCCA | 0.209
CATTTAGA | 0.152
TATGCATA | 0.171
ACGTGTCC | -0.0234
GCTCAACC | -0.107
GAAATTGA | 0.233
AGTAAGAA | 0.233
AAGAGAAA | 0.0589
CTAGCTGA | -0.108
AGTTATCC | 0.145
